Assay results as given in US20210246210A1 (JIANGSU ALPHAMAB BIOPHARMACEUTICALS, published 2021).

B1: aCTLA4.34-aPDL1.9-Fc (bispecific antibody, human IgG1)
chain: QVQLVESGGGLVQPGGSLRLSCAASGYIYSAYCMGWFRQAPGKGLEGVAAIYIGGGSTYYADSVKGRFTISRDNSKNTLYLQMNSLRAEDTAVYYCAADVIPTETCLGGSWSGPFGYWGQGTLVTVSSGAPQVQLVESGGGLVQPGGSLRLSCAASGKMSSRRCMAWFRQAPGKERERVAKLLTTSGSTYLADSVKGRFTISRDNSKNTVYLQMNSLRAEDTAVYYCAADSFEDPTCTLVTSSGAFQYWGQGTLVTVSSGS[skipping human IgG1 Fc with changes]
notes: Dimer
B2: aPDL1.9-L-aCTLA4.34-Fc (bispecific antibody, human IgG1)
chain: QVQLVESGGGLVQPGGSLRLSCAASGKMSSRRCMAWFRQAPGKERERVAKLLTTSGSTYLADSVKGRFTISRDNSKNTVYLQMNSLRAEDTAVYYCAADSFEDPTCTLVTSSGAFQYWGQGTLVTVSSGGGGSGGGGSGGGGSQVQLVESGGGLVQPGGSLRLSCAASGYIYSAYCMGWFRQAPGKGLEGVAAIYIGGGSTYYADSVKGRFTISRDNSKNTLYLQMNSLRAEDTAVYYCAADVIPTETCLGGSWSGPFGYWGQGTLVTVSSGS[skipping human IgG1 Fc with changes]
notes: Dimer
B3: aCTLA4.34-L-aPDL1.9-Fc (bispecific antibody, human IgG1)
chain: QVQLVESGGGLVQPGGSLRLSCAASGYIYSAYCMGWFRQAPGKGLEGVAAIYIGGGSTYYADSVKGRFTISRDNSKNTLYLQMNSLRAEDTAVYYCAADVIPTETCLGGSWSGPFGYWGQGTLVTVSSGGGGSGGGGSGGGGSQVQLVESGGGLVQPGGSLRLSCAASGKMSSRRCMAWFRQAPGKERERVAKLLTTSGSTYLADSVKGRFTISRDNSKNTVYLQMNSLRAEDTAVYYCAADSFEDPTCTLVTSSGAFQYWGQGTLVTVSSGS[skipping human IgG1 Fc with changes]
notes: Dimer
B4: aPDL1.9-aCTLA4.34-Fc (bispecific antibody, human IgG1)
chain: QVQLVESGGGLVQPGGSLRLSCAASGKMSSRRCMAWFRQAPGKERERVAKLLTTSGSTYLADSVKGRFTISRDNSKNTVYLQMNSLRAEDTAVYYCAADSFEDPTCTLVTSSGAFQYWGQGTLVTVSSGAPQVQLVESGGGLVQPGGSLRLSCAASGYIYSAYCMGWFRQAPGKGLEGVAAIYIGGGSTYYADSVKGRFTISRDNSKNTLYLQMNSLRAEDTAVYYCAADVIPTETCLGGSWSGPFGYWGQGTLVTVSSGS[skipping human IgG1 Fc with changes]
notes: Dimer of two chains expressed from one vector
B5: dAb-aCTLA4.34-Fc (Fc fusion)
chain: QVQLQESGGGSVQAGGSLRLSCEASGYTYCMGWFRQAPGKEREGVALAVTGISIPYYADSVKGRFTISQDNVKNTLYLQMNSLKPEDAAMYYCAASTIRYVCPGLNRGDQFKNWGQGTQVTVSSGAPQVQLVESGGGLVQPGGSLRLSCAASGYIYSAYCMGWFRQAPGKGLEGVAAIYIGGGSTYYADSVKGRFTISRDNSKNTLYLQMNSLRAEDTAVYYCAADVIPTETCLGGSWSGPFGYWGQGTLVTVSS[skipping human IgG1 Fc with changes]

Assays:
[1] = target: T1, PD-L1-huFc (human); assay: bridging ELISA: PD-L1-huFc coated, dimer titrated, bound dimer detected with CTLA4-muFc and HRP goat anti-mouse Fc, OD 450/650 nm [cont.) D]
T1 construct: also called soluble PD-L1

[2] = target: T2, CTLA4-muFc (human); assay: ELISA, CTLA4-muFc coated, anti-human Fc-HRP detection (FIG. 2, Panel A)
T2 construct: also called soluble human CTLA4

[3] = target: T3, human PD-L1 on A375-hPD-L1 cells (human, UniProt Q9NZQ7); assay: flow cytometry, A375-hPD-L1 cells, MFI [cont.) G]
T3 construct: whole, on cells
T3 sequence (Q9NZQ7 19-290): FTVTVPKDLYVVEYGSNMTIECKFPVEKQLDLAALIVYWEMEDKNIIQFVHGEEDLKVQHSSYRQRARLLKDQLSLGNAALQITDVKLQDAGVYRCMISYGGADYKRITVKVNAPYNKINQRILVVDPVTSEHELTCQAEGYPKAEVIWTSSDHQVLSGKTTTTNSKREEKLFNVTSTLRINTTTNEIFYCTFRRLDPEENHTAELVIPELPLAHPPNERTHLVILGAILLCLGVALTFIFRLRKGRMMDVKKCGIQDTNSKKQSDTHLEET

[4] = target: T4, PD-L1-muFc (human); assay: ELISA, PD-L1-muFc coated, anti-human Fc-HRP detection (FIG. 2, Panel B)
T4 construct: also called soluble human PD-L1

[5] = target: T2, CTLA4-muFc; assay: ELISA, CTLA4-muFc coated, anti-human Fc-HRP detection (FIG. 2, Panel C)
T2 sequence (chain, as listed by the source limits assumed): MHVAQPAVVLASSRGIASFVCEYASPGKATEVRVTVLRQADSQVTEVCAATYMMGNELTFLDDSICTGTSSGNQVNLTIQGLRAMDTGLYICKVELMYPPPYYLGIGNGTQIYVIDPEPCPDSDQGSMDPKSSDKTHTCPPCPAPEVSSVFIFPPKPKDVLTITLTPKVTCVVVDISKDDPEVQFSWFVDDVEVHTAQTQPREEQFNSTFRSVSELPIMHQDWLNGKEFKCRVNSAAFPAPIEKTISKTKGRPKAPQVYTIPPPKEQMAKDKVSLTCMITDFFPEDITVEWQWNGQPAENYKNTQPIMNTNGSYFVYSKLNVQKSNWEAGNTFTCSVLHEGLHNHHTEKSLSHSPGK

[6] = target: T5, human CTLA4 on HEK293-CTLA4 cells (human, UniProt P16410 36-223); assay: flow cytometry, HEK293-CTLA4 cells, MFI [cont.) H]
T5 construct: whole, on cells; also called cell-surface CTLA4
T5 sequence (P16410 36-223): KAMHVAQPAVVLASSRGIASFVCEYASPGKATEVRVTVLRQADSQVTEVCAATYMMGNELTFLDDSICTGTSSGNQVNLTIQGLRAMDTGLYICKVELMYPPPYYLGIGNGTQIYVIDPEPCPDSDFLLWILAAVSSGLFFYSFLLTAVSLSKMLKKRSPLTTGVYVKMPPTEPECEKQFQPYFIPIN

Sequence of PD-L1-huFc (chain, as listed by the source limits assumed): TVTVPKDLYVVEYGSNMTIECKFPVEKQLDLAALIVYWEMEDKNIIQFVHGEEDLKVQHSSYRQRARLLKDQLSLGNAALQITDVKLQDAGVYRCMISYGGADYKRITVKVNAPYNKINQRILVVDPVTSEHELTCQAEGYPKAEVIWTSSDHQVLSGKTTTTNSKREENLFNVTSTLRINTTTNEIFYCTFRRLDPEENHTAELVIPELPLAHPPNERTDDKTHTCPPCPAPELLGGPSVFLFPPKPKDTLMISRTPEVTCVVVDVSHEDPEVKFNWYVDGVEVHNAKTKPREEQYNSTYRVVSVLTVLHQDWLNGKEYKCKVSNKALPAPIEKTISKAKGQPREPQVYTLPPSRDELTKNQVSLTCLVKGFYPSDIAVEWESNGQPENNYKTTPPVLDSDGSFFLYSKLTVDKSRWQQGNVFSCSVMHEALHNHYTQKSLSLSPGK
Sequence of PD-L1-muFc (chain, as listed by the source limits assumed): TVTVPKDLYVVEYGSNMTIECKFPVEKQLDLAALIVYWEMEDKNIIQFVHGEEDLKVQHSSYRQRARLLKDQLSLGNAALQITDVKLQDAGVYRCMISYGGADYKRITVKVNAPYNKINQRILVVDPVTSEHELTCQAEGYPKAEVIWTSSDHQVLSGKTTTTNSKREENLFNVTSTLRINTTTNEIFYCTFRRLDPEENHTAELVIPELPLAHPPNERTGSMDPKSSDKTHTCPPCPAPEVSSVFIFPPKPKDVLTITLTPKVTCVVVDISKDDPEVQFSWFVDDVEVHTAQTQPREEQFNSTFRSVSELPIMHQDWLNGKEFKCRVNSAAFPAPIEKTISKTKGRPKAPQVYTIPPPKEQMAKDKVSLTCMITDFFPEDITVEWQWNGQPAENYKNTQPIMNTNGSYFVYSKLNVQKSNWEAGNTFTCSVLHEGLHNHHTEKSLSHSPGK

| Binder | EC50 (read off the curve) [1] | EC50 [2] | EC50 (read off the curve) [3] | EC50 [4] | EC50 [5] | EC50 (read off the curve) [6] |
| --- | --- | --- | --- | --- | --- | --- |
| B1 | ~0.005 µg/mL | ~0.04 µg/mL | – | – | – | – |
| B2 | ~0.005 µg/mL | ~0.04 µg/mL | – | – | – | – |
| B3 | ~0.005 µg/mL | ~0.04 µg/mL | – | – | – | – |
| B4 | – | ~0.04 µg/mL | ~0.2 nM | ~0.6 nM | ~0.5 nM | ~4 nM |
| B5 | – | – | – | – | ~0.5 nM | ~2 nM |
